Experimental data from the supplement of paper PMC7125110.
± gives the standard error. This sample is rich in variants without activity.

B1: glmS ribozyme (parent)
chain: AUAAAAGCGCCAGAACUACAGAAAUGUAGUUGACGAGGAGGAGGUUUAUCGAAUUUUCGGCGGAUGCCUCCAAA

Assays:
Settings in all cases: with glucosamine-6-phosphate
glucosamine-6-phosphate [1] = variants of: B1; test: self-cleavage kobs at 160 uM GlcN6P; higher = faster cleavage; RNA array
Method in brief: (§1)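 The measurements used barcoded ribozyme variants on sequenced MiSeq chips, transcribed in situ by E. coli RNA polymerase and tracked at 37 °C with a hybridised Cy3 probe. Glucosamine-6-phosphate, 40 μM to 10 mM in HEPES/KCl/Mg(OAc)2 buffer, was flowed in while tiles were imaged over ~14 h. Baseline-normalised signals, also normalised to non-cleaving reference variants, gave per-tile medians that were fit to one- or two-exponential decays for kobs. kcat and KM resulted from weighted Michaelis–Menten fits across concentrations.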

glucosamine-6-phosphate [2] = variants of: B1; test: self-cleavage kobs at 10000 uM GlcN6P; higher = faster cleavage; RNA array
Method in brief: as §1

glucosamine-6-phosphate [3] = variants of: B1; test: self-cleavage kobs at 2500 uM GlcN6P; higher = faster cleavage; RNA array
Method in brief: as §1

Variant	self-cleavage kobs at 160 uM GlcN6P (glucosamine-6-phosphate [1])	self-cleavage kobs at 10000 uM GlcN6P (glucosamine-6-phosphate [2])	self-cleavage kobs at 2500 uM GlcN6P (glucosamine-6-phosphate [3])
G13A C50U	< 1e-05 s⁻¹	< 1e-05 s⁻¹	
G13A G38A	< 1e-05 s⁻¹		
G13A U30G A42C	< 1e-05 s⁻¹		< 1e-05 s⁻¹
G13C A39C A53C	< 1e-05 s⁻¹		
G13C G38U G66U	< 1e-05 s⁻¹		
G13C G40C A48C U55A	< 1e-05 s⁻¹		
G13C G41C	< 1e-05 s⁻¹		
G13C U30G	< 1e-05 s⁻¹		
G13C U55G	< 1e-05 s⁻¹		
G13U A36C G38U A39C	< 1e-05 s⁻¹	< 1e-05 s⁻¹	
G13U G32U A33C U57A	< 1e-05 s⁻¹		
G13U G41U	< 1e-05 s⁻¹		
G13U U47G A52C	< 1e-05 s⁻¹		< 1e-05 s⁻¹
G13U U49A	< 1e-05 s⁻¹	< 1e-05 s⁻¹	
A14C A15U G32C C58U	< 1e-05 s⁻¹		
A14C A39C C71U	< 1e-05 s⁻¹		
A14C A39U U56A G63U	< 1e-05 s⁻¹		
A14C A42G G62A	< 1e-05 s⁻¹	< 1e-05 s⁻¹	

Variant	self-cleavage kobs at 160 uM GlcN6P (glucosamine-6-phosphate [1])	self-cleavage kobs at 10000 uM GlcN6P (glucosamine-6-phosphate [2])	self-cleavage kobs at 2500 uM GlcN6P (glucosamine-6-phosphate [3])
A14C C16A U31C G35C U55G	< 1e-05 s⁻¹	< 1e-05 s⁻¹	< 1e-05 s⁻¹
A14C C50U	< 1e-05 s⁻¹		
A14C G32U G38U	< 1e-05 s⁻¹		< 1e-05 s⁻¹
A14C G37A C58G	< 1e-05 s⁻¹		< 1e-05 s⁻¹
A14C U30C	< 1e-05 s⁻¹		
A14C U45G	6.63e-05 ± 1.5e-05 s⁻¹		
A14G A15U G38A A39U A42G A52C U69A	< 1e-05 s⁻¹		< 1e-05 s⁻¹
A14G A42U G51U C70G	< 1e-05 s⁻¹		
A14G C16A U17C A18U C19A A20C U56C C67G	< 1e-05 s⁻¹		
A14G C16U C34A G41A A52C	< 1e-05 s⁻¹		< 1e-05 s⁻¹
A14G G35U G40A	< 1e-05 s⁻¹		
A14G G60A G63A	< 1e-05 s⁻¹		< 1e-05 s⁻¹
A14G U31G G32A G44A G51C C61U	< 1e-05 s⁻¹		< 1e-05 s⁻¹
A14G U49A A64G G66U	< 1e-05 s⁻¹		
A14U A15C C34U	< 1e-05 s⁻¹		
A14U A15G G37C A64G	< 1e-05 s⁻¹		
A14U C61G	< 1e-05 s⁻¹		
A14U G29C G40U	< 1e-05 s⁻¹		< 1e-05 s⁻¹
